Test results published in paper PMC4336329 (PLoS ONE, 2015).
About 14,000 (4.5%) of roughly 310,000 compounds showed an effect of 50% or more. The effect is printed as a negative number. Some of the results follow.

Target: human ether-à-go-go-related gene (hERG) potassium channel (human, UniProt Q12809)
Experiment: primary screen, population patch clamp on CHO cells stably expressing hERG
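Also: peak tail current of the secondary pulse compared with the same well before compound.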

human ether-à-go-go-related gene (hERG) potassium channel, sequence (Q12809 whole entry, looked up): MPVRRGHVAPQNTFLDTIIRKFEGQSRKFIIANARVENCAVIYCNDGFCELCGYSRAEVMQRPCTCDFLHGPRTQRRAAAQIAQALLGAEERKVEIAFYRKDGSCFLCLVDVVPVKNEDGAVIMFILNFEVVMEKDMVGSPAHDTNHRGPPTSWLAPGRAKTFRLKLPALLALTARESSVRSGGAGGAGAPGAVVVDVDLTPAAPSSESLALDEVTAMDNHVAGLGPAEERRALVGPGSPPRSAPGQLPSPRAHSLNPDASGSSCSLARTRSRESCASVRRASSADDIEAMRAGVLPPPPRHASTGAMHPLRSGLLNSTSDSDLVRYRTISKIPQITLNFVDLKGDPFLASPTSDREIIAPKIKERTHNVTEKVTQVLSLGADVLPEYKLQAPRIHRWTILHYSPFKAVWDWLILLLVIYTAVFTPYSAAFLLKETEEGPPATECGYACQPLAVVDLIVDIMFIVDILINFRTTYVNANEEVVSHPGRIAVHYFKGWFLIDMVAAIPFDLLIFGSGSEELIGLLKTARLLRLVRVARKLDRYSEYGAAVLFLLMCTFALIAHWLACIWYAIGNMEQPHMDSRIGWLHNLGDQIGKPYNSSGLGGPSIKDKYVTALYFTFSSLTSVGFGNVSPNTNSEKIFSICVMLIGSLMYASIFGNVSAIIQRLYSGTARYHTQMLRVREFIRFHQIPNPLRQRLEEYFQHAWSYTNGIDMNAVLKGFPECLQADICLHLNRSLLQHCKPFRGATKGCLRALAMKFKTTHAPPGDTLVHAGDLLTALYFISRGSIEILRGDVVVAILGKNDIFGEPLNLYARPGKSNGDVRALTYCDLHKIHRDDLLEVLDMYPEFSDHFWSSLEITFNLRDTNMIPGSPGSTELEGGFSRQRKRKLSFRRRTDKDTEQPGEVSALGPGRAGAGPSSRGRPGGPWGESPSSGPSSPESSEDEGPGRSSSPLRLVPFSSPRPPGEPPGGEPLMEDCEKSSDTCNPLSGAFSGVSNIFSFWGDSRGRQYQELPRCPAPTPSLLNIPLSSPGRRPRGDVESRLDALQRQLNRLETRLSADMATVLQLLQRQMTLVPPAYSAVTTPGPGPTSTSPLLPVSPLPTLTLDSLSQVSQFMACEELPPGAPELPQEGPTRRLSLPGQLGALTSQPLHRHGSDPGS

SMILES	hERG current change (%, negative = inhibition) at 10uM [%]
O=C(Oc1ccc(F)c(F)c1)c1ccc2c(=O)n3c(nc2c1)CCC3	-5.07
CCc1cc2c(=O)c(-c3ccon3)c(N)oc2cc1OC	2.34
COc1ccc(N2CCN(C(=O)CSc3nnc(CNc4ccccc4)o3)CC2)cc1	-0.0447
COc1ccc(OC(=O)C2CC(=O)N(c3ccc(C)cc3)C2)cc1 (stereo not drawn)	-10.2
C/C(=N\NC(=O)COc1ccccc1-c1ccccc1)c1cccnc1	-53.9
O=C(O)c1cccc(NC(=S)NC(=O)c2cncc(Br)c2)c1	11.1
CC1c2cc3c(cc2CCN1C(=O)c1ccc(Cl)cc1)OCCCO3 (stereo not drawn)	-21.3
Cc1cccc(OC(C)C(=O)Nc2ccc(N3CCCCC3)cc2)c1 (stereo not drawn)	-9.07
Cc1ccc(NC(=O)N2CCN(c3ccccn3)CC2)cc1	-1.45
Cc1ccc(Cl)cc1N1CCN(S(=O)(=O)c2ccc3c(c2)NC(=O)C(C)C(=O)N3)CC1 (stereo not drawn)	6.31
CC(=O)Nc1ccc(S(=O)(=O)Nc2nccc(C3Cc4ccccc4C(=O)O3)n2)cc1 (stereo not drawn)	7.05
CC(C)=C1C2CCC1C1C(=O)N(c3ccc(C)c(C)c3)C(=O)C21 (stereo not drawn)	3.55
CN(C)c1ccc(N2C(=O)CC(Sc3ccccc3C(=O)O)C2=O)cc1 (stereo not drawn)	-4.69
CC(=O)c1sc2nc(=O)c(C)nn2c1C	-0.703
c1ccc(-c2nn3c(-c4ccccc4)nnc3s2)cc1	19.5
Cc1ccc(NC(=O)CSc2nnc(-c3ccco3)o2)cc1	2.91
CC(C)(C)c1csc(NC(=O)c2ccccc2O)n1	-0.0514
Cc1c(CN2CCCC(C)C2)c(O)n(CCO)c(=O)c1C#N (stereo not drawn)	27.5
CCCOc1ccccc1C1SCC(=O)Nc2c1c(=O)[nH]n2C(C)CCC (stereo not drawn)	6.88
Cc1ccccc1-c1nc2c3ccccc3nc(=S)n2[nH]1	17.8
Cc1ccccc1Cn1c([N+](=O)[O-])cnc1C	-5.83
CCN1CCCC1CNC(=O)c1ccc2c(=O)n(CCOC)c(=O)[nH]c2c1 (stereo not drawn)	23.4
CC1(C)CC2(CC(c3ccccc3F)c3ccc(O)c(O)c3O2)NC(=S)N1 (stereo not drawn)	19.1

SMILES	hERG current change (%, negative = inhibition) at 10uM [%]
O=C(O)C1C(c2ccccc2)C(C(=O)OCc2ccco2)C1c1ccccc1 (stereo not drawn)	-6.52
Cc1ccc2oc(-c3cccc(NC(=O)C4CCCO4)c3)nc2c1 (stereo not drawn)	-32
COC(=O)C1=C(NC(=O)COc2ccc3ccccc3c2)CCS1	17.1
CC(C)(C)c1ccc(/C=N/NC(=O)C(=O)NCCCN2CCOCC2)cc1	-13.3
CC1=C(C(=O)OCC(C)C)C(c2ccsc2)NC(=O)N1 (stereo not drawn)	0.67
CNC(=O)c1ccc(-c2cc(C(F)(F)F)nn2C)s1	17.6
CCOC(=O)C1=C(C)C(c2ccccc2OC)NC(=S)N1 (stereo not drawn)	-11.3
O=C(N/N=C/c1c(Cl)cccc1Cl)c1cccc(F)c1	3.24
Cc1ccnc(NC(=O)CCCc2c[nH]c3ccccc23)c1	7.77
COc1ccc2c(c1)O[C@@H](c1cccc(C(F)(F)F)c1)[C@H](O)C2=O	-2.5
CCOC(=O)c1sc(=NC(=O)c2ccc(C)c(C)c2)n(C)c1C	18.5
CCC1=Nc2ccccc2NC2=C1C(=O)CCC2.Cl	-6.53
CCc1ccc(OCc2n[nH]c(=S)n2C(C)CCCC(C)C)cc1 (stereo not drawn)	14.1
CC(C)c1ccc(S(=O)(=O)N2CCC3(CC2)OCCO3)cc1	15.6
CCCS(=O)(=O)N1CCN(S(=O)(=O)c2ccc(F)cc2)CC1	10.6
CCOc1ccccc1N1CCN(CC(=O)Nc2nnc(CC)s2)CC1	8.32
Cn1c(=O)c2c(ncn2Cc2ccccc2)n(C)c1=O	-1.19
O=C(NCc1ccc(Cl)cc1)c1ccc(COCC(F)(F)F)o1	-18.7
O=C1C=C(c2ccccc2C(F)(F)F)C[C@@H](c2ccc3c(c2)OCO3)C1	-1.19
COc1ccccc1CCNC(=O)c1cccc(S(=O)(=O)N2CCc3ccccc3C2)c1	-35.5
COc1cc(C(=O)NCC(c2cccs2)N2CCc3ccccc32)cc(OC)c1OC (stereo not drawn)	1.49
CCN(CC)S(=O)(=O)c1ccc2oc(SCC(=O)NCc3ccccc3)nc2c1	-7.48
CCOc1ccc(N(CC(=O)NCc2ccccc2OC)S(C)(=O)=O)cc1	-16.2

SMILES	hERG current change (%, negative = inhibition) at 10uM [%]
O=c1[nH]c(=O)n(-c2ccccc2)c2c1C(C(F)(F)F)(C(F)(F)F)N=C(CCC1CCCCC1)N2	-3.44
COc1ccc(-c2ccc(SCC(=O)c3cccs3)nn2)cc1	1.59
COc1ccc(/C=N/Nc2ccc([N+](=O)[O-])cc2S(=O)(=O)N2CCN(C)CC2)cc1	9.15
COc1ccc(CNS(=O)(=O)NCc2ccc(C)cc2)cc1	19.1
Cc1c(NC(=O)CCc2ccccc2)cccc1[N+](=O)[O-]	25.3
COc1ccccc1-n1cnnc1SCC(=O)c1cc(C)n(Cc2cccs2)c1C	-27.8
CCn1cc(C(=O)Nc2ccc(C)cc2[N+](=O)[O-])c(C)n1	5.23
Cc1ccc(-c2cc(C(=O)Nc3ccc(S(=O)(=O)Nc4cc(C)on4)cc3)c3ccccc3n2)c(C)c1	-0.583
COc1cc(S(=O)(=O)Nc2ccccc2C)ccc1Cl	6.23
Cc1cccc(C)c1NS(=O)(=O)c1c(C)[nH]c(=O)[nH]c1=O	-14.2
CCOC(=O)Cc1csc(NC(=O)CSc2nnc(-c3cccnc3)n2Cc2ccco2)n1	-30.5
CC1(C)CC(=O)C2=C(C1)N(c1ccccc1)C(=O)C2(O)C(F)(F)F (stereo not drawn)	1.69
Cc1ccc(S(=O)(=O)N2C(=O)C(c3ccccc3)SC2=Nc2ccccc2)cc1 (stereo not drawn)	16.9
CCCNC(=O)COC(=O)c1cc(SC)ccc1Cl	-10.8
Cc1cccc(-n2c(SCC(=O)Nc3nonc3C)nnc2-c2ccoc2C)c1	-78.9
CCCc1cc(=O)[nH]c2nnc(SCC(=O)Nc3ccc4c(c3)OCCO4)n12	11.6
Cl.c1coc(CNc2ncnc3ccccc23)c1	2.88
CCN(CC)c1ccc(C(=O)N/N=C(\C)c2ccc(O)cc2)cc1	16.6
CCOC(=O)C1(Cc2ccccc2C)CCCN(C(=O)c2ccc(CSC)o2)C1 (stereo not drawn)	-39.1
O=C(O)COc1ccc(Br)cc1/C=N/O	7.4
CC(C)=C(NC(=O)c1ccccc1)C(=O)NCCc1nc2ccccc2[nH]1	9.91
COc1ccc(CCN(Cc2cccs2)S(=O)(=O)c2ccc(C(=O)O)cc2)cc1OC	32
CCCCCc1c(O)nc(SCCN(C)C)[nH]c1=O.Cl	11.4

SMILES	hERG current change (%, negative = inhibition) at 10uM [%]
CCOc1ccc(C(=O)N2CCN(Cc3ccccc3)CC2)cc1	-69.3
CCSc1ccc(-c2ccco2)nn1	7.31
Cc1c(C)c2ccc(OC(C)C(=O)NCc3ccccn3)cc2oc1=O (stereo not drawn)	15.3
O=C1N=C(N2CCCCC2)S/C1=C/C1=Cc2ccccc2OC1	-15.4
COC(=O)C[C@H]1c2cc(F)ccc2S(=O)(=O)N1c1ccccc1	8.82
O=C(CCC1CCCC1)Nc1ccc(Br)cn1	1.29
O=P(O)(CP(=O)(c1ccccc1)c1ccccc1)c1ccccc1O	18.7
Cc1cc(C)nc(NC(=O)CSc2nn(C)c(=S)s2)n1	-0.37
O=C(NCC(c1ccco1)N1CCN(c2ccc(F)cc2)CC1)C(=O)NC1CC1 (stereo not drawn)	-4.67
COc1ccc2c(c1)CCC/C2=N\NC(=O)c1ccoc1C	1.44
O=C(CSc1nc(O)cc(=O)[nH]1)N1CCOCC1	3.8
C=CCC1(CN2CCCCCC2=O)C(=O)NC(=O)NC1=O	10.3
CCCCN(C(=O)c1ccc([N+](=O)[O-])o1)c1c(N)n(CCCC)c(=O)[nH]c1=O	2.83
CCc1ccc(NC(=O)CSc2nc(CSc3ccc(C)cc3)cc(=O)[nH]2)cc1	11.3
COc1cc(/C=C(\C#N)C(=O)Nc2cccnc2)ccc1OC(C)C	0.825
O=C(NN1C(=O)c2ccc(-c3ccc4c(c3)C(=O)N(NC(=O)c3cccnc3)C4=O)cc2C1=O)c1cccnc1	6.56
CC(C)(C)c1cc(C(=O)N/N=C/c2ccc(O)cc2)n(-c2ccccc2)n1	-14.9
COc1cc2nc(SCC(=O)c3ccc(Br)cc3)n3nc(C)nc3c2cc1OC	-17.7
Cc1ccc(NC2SC(=O)N(Cc3cccc(C(=O)O)c3)C2=O)cc1 (stereo not drawn)	15.2
Cc1csc(NC(=O)NC2(C(F)(F)F)Oc3ccccc3O2)n1	5.26
O=C(NCC(=O)N1CCN(c2ccccc2)CC1)c1ccccc1	1.32
